Source: the RNAGym collection of RNA variant scans (doi:10.1093/nar/gkz1192)
The source gives no read counts; variants with many changes may rest on few reads.

B1: CPEB3 Ribozyme (parent)
chain: UAACAGGGGGCCACAGCAGAAGCGUUCACGUCGCAGCCCCUGUCAGAUUCUGGUGAAUCUGCGAAUUCUGCUGUAUAUCUC

Variants of: B1
Assay: self-cleavage, relative activity (ratio to wild type); higher = more cleavage; in vitro, sequencing
Outline: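 Relative activity was defined as the cleaved/total read fraction for a variant divided by the same fraction for the unmutated ribozyme. CPEB3 self-cleaving ribozyme libraries were made by rounds of error-prone PCR, barcoded, and transcribed in vitro with T7 RNA polymerase for 5 hours at 37°C, and cleavage ran through transcription plus a 15 min DNase I step before EDTA. Illumina sequencing of template-switched reverse transcripts gave the reads, and DNA sequencing mapped the barcodes. Averages come from three batches, using variants with at least 5 reads.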
With A3G A18U C38G U49A U69A U76C U80C the self-cleavage was 0.09.
Work on A3G A18U C50A U51G yielded a self-cleavage of 0.32.
Variant A3G A18U G36A has a self-cleavage of 0.34.
With A3G A18U U26C the self-cleavage was 0.28.
A3G A18U U26C G36A G52A U80C gave a self-cleavage of 0.35.
With A3G A18U U26C U54G A56G the self-cleavage was 0.11.
With A3G A18U U31C U43C the self-cleavage was 0.6.
In the case of A3G A18U U41A A75G, the self-cleavage is reported as 0.42.
A3G A18U U48A A65G showed a self-cleavage of 0.07.
Variant A3G A18U U51C U67A has a self-cleavage of 0.41.
A3G A18U U51C U78C gave a self-cleavage of 0.55.
A3G A18U U60A showed a self-cleavage of 0.64.
For A3G A18U U67C, the self-cleavage was 0.28.
A3G A20C C34G A65U C68A showed a self-cleavage of 0.04.
A3G A20C U25C gave a self-cleavage of 0.68.
With A3G A20C U67C the self-cleavage was 0.23.
In the case of A3G A20G A21G U31C U78C, the self-cleavage is reported as 0.63.
In the case of A3G A20G A21G U60C, the self-cleavage is reported as 0.23.
Work on A3G A20G A28G yielded a self-cleavage of 0.28.
For A3G A20G A28G U51A, the self-cleavage was 0.75.
Work on A3G A20G A28U C38A U43C G61A yielded a self-cleavage of 0.06.
With A3G A20G A35G C38U U48C A56G U67A the self-cleavage was 0.54.
Work on A3G A20G A56G yielded a self-cleavage of 0.85.
A3G A20G A56U A64G gave a self-cleavage of 0.37.
With A3G A20G A57G U60C the self-cleavage was 0.47.
Work on A3G A20G A64U G70U yielded a self-cleavage of 0.27.
A3G A20G C23U A28U U60A A65G G70U gave a self-cleavage of 0.12.
With A3G A20G C32U A45G U48C the self-cleavage was 0.08.
With A3G A20G C34U A64U U80C the self-cleavage was 0.2.
A3G A20G C50U gave a self-cleavage of 0.98.
A3G A20G G22A A35U gave a self-cleavage of 0.06.
A3G A20G G24U U31A C32U A56G U67C gave a self-cleavage of 0.14.
With A3G A20G G30A the self-cleavage was 0.2.
Work on A3G A20G U25A C40U U43A U60C yielded a self-cleavage of 0.09.
A3G A20G U25C U76C gave a self-cleavage of 0.13.
Work on A3G A20G U26A U54C U66A A75G yielded a self-cleavage of 0.41.
With A3G A20G U26C A35U C39U G55C the self-cleavage was 0.01.
A3G A20G U26C C44A A65G showed a self-cleavage of 0.44.
A3G A20G U26C U48C A56U gave a self-cleavage of 0.12.
In the case of A3G A20G U31A U67G C79A, the self-cleavage is reported as 0.38.
For A3G A20G U31C, the self-cleavage was 0.76.
Work on A3G A20G U31C U41C A57G yielded a self-cleavage of 0.44.
Work on A3G A20G U31C U54A A77U U80A yielded a self-cleavage of 0.61.
In the case of A3G A20G U41C U43C U60C, the self-cleavage is reported as 0.37.
Variant A3G A20G U43C U67A C71U has a self-cleavage of 0.08.
In the case of A3G A20G U48C A56G, the self-cleavage is reported as 0.58.
With A3G A20G U48C U49A U54C U58C the self-cleavage was 0.16.
A3G A20G U49C gave a self-cleavage of 0.33.
Variant A3G A20G U51G A65G U80C has a self-cleavage of 0.09.
For A3G A20G U69C G70C C79A, the self-cleavage was 0.49.
A3G A20G U80C showed a self-cleavage of 0.95.
With A3G A20U A28G A45U U60A A77U the self-cleavage was 0.08.
A3G A20U A28U A64G U74G gave a self-cleavage of 0.4.
For A3G A20U A47G U72A, the self-cleavage was 0.16.
A3G A20U A56C G63A U67A gave a self-cleavage of 0.66.
For A3G A20U A64G, the self-cleavage was 0.5.
A3G A20U C32U A35G A57G U78C U80G showed a self-cleavage of 0.18.
For A3G A20U C32U U69C, the self-cleavage was 0.09.
A3G A20U C62G U76A gave a self-cleavage of 0.2.
Variant A3G A20U U25A U51A G53A U74C has a self-cleavage of 0.17.
A3G A20U U41A U54C A75G U78G gave a self-cleavage of 0.08.
In the case of A3G A20U U43A A64G, the self-cleavage is reported as 0.15.
Variant A3G A20U U49C U66C U78C has a self-cleavage of 0.25.
For A3G A20U U51A, the self-cleavage was 0.55.
Variant A3G A20U U51A A65G U67A C68G has a self-cleavage of 0.11.
For A3G A20U U51G U54C U67C, the self-cleavage was 0.35.
In the case of A3G A20U U76A, the self-cleavage is reported as 0.43.
A3G A21G A28G C71U A75G gave a self-cleavage of 0.06.
A3G A21G A28G U41G gave a self-cleavage of 0.57.
Work on A3G A21G A28G U54C C71G yielded a self-cleavage of 0.13.
For A3G A21G A45C U48C A65G U69A, the self-cleavage was 0.22.
With A3G A21G A45C U78C U80A the self-cleavage was 0.46.
With A3G A21G A45G U66C the self-cleavage was 0.68.
In the case of A3G A21G C38U A45G U72A, the self-cleavage is reported as 0.14.
Work on A3G A21G C38U U58C yielded a self-cleavage of 0.34.
With A3G A21G C39A U54A U66A U80A the self-cleavage was 0.05.
For A3G A21G C40G U41C U48C, the self-cleavage was 0.44.
A3G A21G G24A U26C U49G A64G U76A gave a self-cleavage of 0.07.
Work on A3G A21G G24U A28U C40U A45U U51C yielded a self-cleavage of 0.08.
With A3G A21G G42A A56U U72C the self-cleavage was 0.36.
With A3G A21G U25A A45C G63A the self-cleavage was 0.06.
For A3G A21G U25C A35G, the self-cleavage was 0.62.
In the case of A3G A21G U26C, the self-cleavage is reported as 0.68.
